Measurements: PubChem BioAssay (NCI)
Values joined by “and” are separate entries in the source; they are usually repeats but may differ in a detail not shown here. Equal values may be shown once.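 Grown in 96-well plates, cells were treated for 48 hours with each compound at five concentrations. Insufficient inhibition: endpoint recorded as highest concentration tested. The concentration for 50% growth inhibition is given as GI50. TGI marks complete inhibition of growth.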 Square brackets hold non-standard residues; d marks the D form. Peptide text beside a SMILES is read from it. * marks the point of attachment. Phe(4-NO2) = N[CH](Cc1ccc([N+](=O)[O-])cc1)C(=O)O; Cbz = O=C(OCc1ccccc1)*

Tested on: NCI-H322M lung
Test: NCI anticancer screen, dose series, 48 h

Structure (SMILES)	GI50	TGI
NC(=O)C1c2ccccc2C=Cc2ccccc21	> 100 µM	> 100 µM
O=C(NO)c1ccc(OCc2cccc(Cl)c2)cc1	–	36.3 µM
O=C(Nc1cc2c(=O)[nH]c3ccccc3c2oc1=O)c1cnccn1	–	> 100 µM
O=C1/C(=C\c2ccc(F)cc2)CN(C(=O)c2ccc([N+](=O)[O-])cc2)C/C1=C\c1ccc(F)cc1	38.5 µM	98.9 µM
C=CCCOC(=O)CO[N+](=O)[O-]	–	> 100 µM
CC(C)CCSC1=CC(=O)c2ccccc2C1=O	11.7 µM	> 59.4 µM
Cc1ccc2c(c1)C(C)Cc1c(ncnc1-n1cnc3cc(C)ccc31)N2C (stereo not given)	0.0525 µM	18.4 µM
CCN(CC)C(=S)SNc1ccc(S(N)(=O)=O)cc1	–	> 100 µM
COc1ccc(N=Nc2c(C)c(C#N)c(=S)n(C3OC(COC(C)=O)C(OC(C)=O)C(OC(C)=O)C3OC(C)=O)c2C)cc1 (stereo not given)	–	> 100 µM
Nc1nc(Cl)cc(NCCCCCNc2cc(Cl)nc(N)n2)n1	–	91.7 µM
CCNCCC1(CC)C(=O)NC(=O)NC1=O	–	> 100 µM
CCOC(=O)CCC(NC(=O)OCc1ccccc1)C(=O)NC(CCC(=O)OCC)C(=O)NC(Cc1ccc([N+](=O)[O-])cc1)C(=O)NC(CCC(=O)OCC)C(=O)NC(CCC(=O)OCC)C(=O)OCC (stereo not given) (Cbz-E(OEt)E(OEt)[Phe(4-NO2)]E(OEt)E(OEt)-OEt; configuration not given here)	–	> 100 µM
Cc1ccc(-n2c3nc(=O)n(C)c(=O)c-3nc3ccccc32)cc1	–	67 µM
CNC1C(O)C(OC2C(N)CC(N)C(OC3OC(CN)=CCC3N)C2O)OCC1(C)O (stereo not given)	–	> 100 µM
Sc1ccc2ccccc2c1CNCc1ccccc1	–	> 100 µM
Nc1ccc(Oc2ccc(C3(c4ccc(Oc5ccc(N)cc5)cc4)C4CC5C6CC7CC5C3C(C7)C6C4)cc2)cc1	–	> 100 µM
C#CCSc1n[nH]c(-c2ccco2)n1	–	> 100 µM
O=C(Cc1nc2ccccc2s1)Nc1ccc(Cl)cc1	–	> 100 µM
CC(N)C(=O)OCN1C(=O)C2C3C=CC(C2C1=O)C1C2C(=O)N(COC(=O)C(C)N)C(=O)C2C31 (stereo not given)	–	> 100 µM
Cc1c(-c2ccccc2)[nH]c2ccc(Cl)cc2c1=O	–	> 100 µM
CO[C@H]1ON=C(c2c(C)cc(C)cc2C)[C@@H]1C1(c2ccccc2)ON=C(c2c(C)cc(C)cc2C)O1 (stereo not given in full)	–	> 100 µM
CCSC1=N/C(=C\c2ccco2)C(NN)=N1	–	> 50 µM

Structure (SMILES)	GI50	TGI
COc1ccc2c(c1)CCN=C2Cc1ccccc1CCCl	–	> 100 µM
C=C1[C@H](OC(=O)C(C)C)[C@@H](OC(C)=O)[C@@H](OC(C)=O)C(C)(C)[C@@H]2O[C@H]2[C@@H](C)C(=O)[C@@]2(OC(C)=O)C[C@@](C)(OC(C)=O)[C@H](OC(C)=O)[C@@H]2[C@H]1OC(C)=O	–	> 100 µM
CN1C(=O)CN2C(Cl)(Cl)C2(c2ccccc2F)c2cc([N+](=O)[O-])ccc21 (stereo not given)	–	> 100 µM
CCOC(CCCNCCCn1c2c(c3cc(OC)c(OC)cc3c1=O)C(=O)c1cc3c(cc1-2)OCO3)OCC	6.8 µM	13.2 µM
O=C(c1ccc(OCCN2CCCCC2)cc1)c1c(-c2ccc(O)cc2)sc2cc(O)ccc12	13 µM and 15.8 µM	26.1 µM and 30.6 µM
O=C1Nc2cc(Cl)ccc2N=CC1NC(=O)C(c1ccccc1)c1ccccc1Cl (stereo not given)	–	> 100 µM
CCN1CCN(c2nc3ccccc3nc2C(=O)c2ccc(OC)cc2)CC1	–	> 100 µM
Nc1nc(Cl)cc(NCCCNc2cc(Cl)nc(N)n2)n1	–	> 100 µM
Cc1c(-c2ccccc2)c(=O)oc2ccc(Cl)cc12	–	> 100 µM
NC(=O)c1ccc(NS(=O)(=O)c2ccc(N)cc2)nc1	–	> 100 µM
C[C@H]1CC[C@H]([C@@H](C)[C@H]2[C@@H](O)C[C@H]3[C@@H]4CC[C@H]5C[C@@H](O)CC[C@]5(C)[C@H]4CC[C@]23C)NC1	–	37.4 µM
CCOC(=O)C1(C#N)C(c2ccccc2)CC(O)(c2ccc([N+](=O)[O-])cc2)C(C(=O)c2ccc([N+](=O)[O-])cc2)C1c1ccccc1 (stereo not given)	–	> 100 µM
CCCCCCCCCCCCNC(=O)[C@H]1CSC(c2cc3ccccc3s2)N1 (stereo not given in full)	4.36 µM	8.6 µM
CCOC(=O)CC(=O)C(=O)NNC1=NCCN1	–	> 100 µM
CN(C)CCCNC(=O)c1cc(NC(=O)c2cc(NS(=O)(=O)c3ccc4c(c3)C(=O)c3ccccc3C4=O)cn2C)cn1C	–	> 100 µM
COc1c2ccoc2cc2oc(=O)ccc12	–	> 100 µM
COc1ccc(/C=N/n2c(=O)[nH]c3ccccc3c2=O)cc1	–	> 100 µM
O=C1c2sc(-c3ccc(F)cc3)cc2-n2cccc21	–	> 100 µM
COc1ccc(CCN2CCCN3C2=Nc2ccccc2S3(=O)=O)cc1	0.736 µM	> 100 µM
COc1ccccc1/C=C/C(=O)c1c(O)cc2occc2c1OC	> 100 µM	> 100 µM
COC(=O)[C@H]1[C@@H](O)[C@@]2(O)c3c(OC)cc(O[C@@H]4O[C@@H]([C@H](O)CO)CO[C@H]4OC)cc3O[C@@]2(c2ccc(OC)cc2)[C@@H]1c1ccccc1	0.00306 µM	0.0211 µM
c1ccc(CSc2ccccc2CN2CCN(Cc3ccccc3SCc3ccccc3)CCN(Cc3ccccc3SCc3ccccc3)CC2)cc1	–	4.72 µM

Structure (SMILES)	GI50	TGI
CN1CCC(CNc2ccc3ncc(-c4cccc(OC(F)(F)F)c4)n3n2)CC1	3.07 µM and 3.41 µM	13.2 µM and > 10 µM
CN[C@@H](C)C(=O)N[C@H]1CN(C(=O)CC(C)C)CC[C@H]2CC[C@@H](C(=O)NC(c3ccccc3)c3ccccc3)N2C1=O	> 100 µM	> 100 µM
N=c1oc2c(Br)cc(Br)cc2cc1C(=O)Nc1ccccn1	–	> 100 µM
N=C(N)/N=C(\N)c1c(-c2cc(O)ccc2O)nc2sccn12	22.9 µM	60.4 µM
C=CCCCn1ccc2ccccc21	–	> 100 µM
O=C(CCCCCCCn1cc(-c2cccnc2)nn1)Nc1ccccc1-c1ccccc1	8.38 µM	97.4 µM
COc1cc(OC)c2ssc3c(OC)cc(OC)c4ssc1c2-c43	–	> 100 µM
Fc1ccc(-c2nn3c(CNc4ccccc4)nnc3s2)cc1	6.22 µM	93.2 µM
CCCCOCn1c(=O)[nH]c(=O)c2ccccc21	–	> 100 µM
COc1cccc(Cn2c(-c3nonc3N)nc3ccccc32)c1	0.893 µM	> 100 µM
CSc1nc(NC2OCC(OC(C)=O)C(OC(C)=O)C2OC(C)=O)c(N=C(C)C(C)=O)c(=O)n1C (stereo not given)	–	> 100 µM
Cc1nc2c(O)cc3c4c(=O)n(C)c(=O)n(C)c4n(Cc4ccccc4)c3c2nc1C	–	87.5 µM
CNC1C(O)C(NC)C2OC3(O)C(=O)CC(C)OC3OC2C1O (stereo not given)	–	> 100 µM
O=c1c(-c2c(-c3ccccc3)oc3ccc(Cl)cc3c2=O)c(-c2ccccc2)oc2ccc(Cl)cc12	–	> 100 µM
CCN1C(=S)n2cccc2C1CC(=O)c1ccc(Cl)cc1 (stereo not given)	–	> 100 µM
C=C(C)[C@@H]1CC[C@]2(C(N)=O)CC[C@]3(C)[C@H](CC[C@@H]4[C@@]5(C)CC[C@H](O)C(C)(C)[C@@H]5CC[C@]43C)[C@@H]12	2.59 µM	13 µM
C=CC(=O)N1C/C(=C\c2ccccc2)C(=O)/C(=C/c2ccccc2)C1	–	10.7 µM
Cc1cccc(O)c1-c1nnc(CCCCCCCCc2nnc(-c3c(C)cccc3O)n2N)n1N	–	> 100 µM
C/C1=C/C(=O)O[C@@H]2C[C@@H](CC[C@H](C)/C=C\C=C\CC1)O[C@@](O)([C@@H]1CSC(=O)N1CO)C2	1.21 µM	> 100 µM
O=C1OC2C(O)COC2(O)C1(O)C(C[N+](=O)[O-])c1ccc(Cl)cc1 (stereo not given)	–	32.2 µM
O=C1/C=C/[C@@H](O)[C@@H]2C[C@@H](O)C[C@H]2/C=C/CCC[C@H](CCc2ccc(C(F)(F)F)cc2)O1	0.156 µM	20 µM
C/C(=C/c1ccccc1)CN(C(=O)/C=C\Sc1ccccc1)C(C)(C)C	–	> 100 µM
